# Where “and” joins values, the source holds several entries; their conditions need not be identical. Identical values can stand only once. Counter-ions that a name gives are not always drawn. Among all 5,800 compounds or so, about 620 (11%) showed activity.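 Rule for the calls: active = score above a cut-off or among the top three wells of a plate; in these data no inactive exceeds 0.85.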 The list shows a part of the results, in another mix than the full data.
# System: primary human hepatic stellate cells (donor 1)
# Assay: scaled lipid accumulation score (0 = DMSO-like, 1 = nortriptyline-like); higher = stronger HSC inactivation (lipid re-accumulation), active = hit call of the paper
# Conditions: 48 h
# [1] = library stock concentration: 10 mM
# [2] = library stock concentration: 3.33 mM
# [3] = library stock concentration: 80 uM
# [4] = library stock concentration: 400 uM
# [5] = library stock concentration: 2 mM
# [6] = library stock concentration: 1 mM
# [7] = library stock concentration: 5.9 mM
structure (smiles),measurement,setting,value
Cc1c(CC(C)(C)C(=O)O)n(Cc2ccc(Cl)cc2)c2ccc(F)cc12,scaled lipid accumulation score,[1],inactive: ≤ -0.006
O=C(O)c1cc(=O)c2c(OCC(O)COc3cccc4oc(C(=O)O)cc(=O)c34)cccc2o1 [Cromolyn Sodium],scaled lipid accumulation score,[1],inactive: 0.16
O=C(O)c1cc(=O)c2c(OCC(O)COc3cccc4oc(C(=O)O)cc(=O)c34)cccc2o1 [Cromolyn disodium salt],scaled lipid accumulation score,,inactive: ≤ 0
O=C(O)c1cc(=O)c2c(OCC(O)COc3cccc4oc(C(=O)O)cc(=O)c34)cccc2o1 [Cromolyn sodium],scaled lipid accumulation score,[1],inactive: 0.001
CCCCOc1ccc(CC(=O)NO)cc1 [Bufexamac],scaled lipid accumulation score,,inactive: ≤ 0
same,scaled lipid accumulation score,[2],inactive: ≤ 0
same,scaled lipid accumulation score,[1],inactive: ≤ 0
CC(=O)OC(C)C[N+](C)(C)C (stereo not given) [Methacholine chloride],scaled lipid accumulation score,,inactive: ≤ 0
same,scaled lipid accumulation score,[1],inactive: ≤ 0
CC(=O)OC(C)C[N+](C)(C)C (stereo not drawn) [Acetyl-beta-methylcholine chloride],scaled lipid accumulation score,[1],inactive: ≤ 0
C=CCc1ccccc1OCC(O)CNC(C)C (stereo not given) [Alprenolol HCl],scaled lipid accumulation score,library stock concentration: 8 mM,inactive: 0.203
C=CCc1ccccc1OCC(O)CNC(C)C (stereo not given) [Alprenolol hydrochloride],scaled lipid accumulation score,,inactive: 0.634
same,scaled lipid accumulation score,[1],inactive: 0.5
Oc1c(Cl)cc(Cl)cc1Sc1cc(Cl)cc(Cl)c1O [Bithionate sodium],scaled lipid accumulation score,library stock concentration: 5 mM,inactive: 0.057
Oc1c(Cl)cc(Cl)cc1Sc1cc(Cl)cc(Cl)c1O [Bithionol],scaled lipid accumulation score,[1],inactive: ≤ 0
Cc1nc(N=Nc2ccc(S(=O)(=O)O)cc2S(=O)(=O)O)c(COP(=O)(O)O)c(C=O)c1O,scaled lipid accumulation score,[1],inactive: ≤ 0
Cc1ccc(O)c([C@H](CCN(C(C)C)C(C)C)c2ccccc2)c1,scaled lipid accumulation score,[1],inactive: 0.505
Cc1ccc(O)c([C@H](CCN(C(C)C)C(C)C)c2ccccc2)c1 [Tolterodine tartrate],scaled lipid accumulation score,[2],inactive: 0.216
same,scaled lipid accumulation score,[1],inactive: 0.836
CCCCC[C@H](CC(=O)NO)C(=O)N[C@H](C(=O)N1CCC[C@H]1CO)C(C)C [Actinonin],scaled lipid accumulation score,[1],inactive: ≤ 0
Cc1cc(C)cc(NC(=O)Cc2ccc(OC(C)(C)C(=O)O)cc2)c1 [Efaproxiral Sodium],scaled lipid accumulation score,[2],inactive: ≤ 0
same,scaled lipid accumulation score,[1],inactive: ≤ -0.001
CCN1/C(=C/C(C)=O)Sc2ccc(OC)cc21,scaled lipid accumulation score,[3],inactive: ≤ 0
same,scaled lipid accumulation score,[4],inactive: ≤ 0
same,scaled lipid accumulation score,[5],inactive: ≤ 0
same,scaled lipid accumulation score,[1],inactive: ≤ 0 and inactive: ≤ -0.034
"CN(C)C(=O)N=NC(=O)N(C)C [N,N,N',N'-Tetramethylazodicarboxamide]",scaled lipid accumulation score,[1],inactive: ≤ -0.07
Nc1nc(=O)c2c([nH]1)NCC(CNc1ccc(C(=O)N[C@@H](CCC(=O)O)C(=O)O)cc1)N2C=O (stereo not given in full) [Leucovorin calcium],scaled lipid accumulation score,[1],inactive: ≤ 0
CCCCCCCCCCCCCCCCO [1-Hexadecanol],scaled lipid accumulation score,[2],inactive: ≤ 0
same,scaled lipid accumulation score,[1],inactive: ≤ -0.001
Cn1c(=O)c(F)c(Nc2ccc(I)cc2F)c2c(=O)n(C[C@@H](O)CO)cnc21,scaled lipid accumulation score,[2],inactive: 0.027
same,scaled lipid accumulation score,[1],inactive: 0.174
CC(C)(C)c1cc(NC(=O)Nc2ccc(-c3cn4c(n3)sc3cc(OCCN5CCOCC5)ccc34)cc2)no1 [Quizartinib  (AC220) (2 mM)],scaled lipid accumulation score,[5],active: 1.02
CC(C)(C)c1cc(NC(=O)Nc2ccc(-c3cn4c(n3)sc3cc(OCCN5CCOCC5)ccc34)cc2)no1 [Quizartinib  (AC220) (10 mM)],scaled lipid accumulation score,[1],active: 1.7
CCOc1ccc(-c2nc3ccc(-c4nc5ccc(N6CCN(C)CC6)cc5[nH]4)cc3[nH]2)cc1,scaled lipid accumulation score,library stock concentration: 8.9 mM,inactive: 0.339
CCCCC/C=C\C/C=C\CC/C=C\CCCC(=O)O [Pinolenic Acid],scaled lipid accumulation score,[6],inactive: 0.009
COc1ccc(-c2cc3c(C)nc(N)nc3n([C@H]3CC[C@H](OCCO)CC3)c2=O)cn1,scaled lipid accumulation score,[2],inactive: ≤ 0
same,scaled lipid accumulation score,[1],inactive: 0.45
CC1=NN(c2ccc(C(=O)O)cc2)C(=O)C1=Cc1ccc(-c2cc(C)c(C)cc2[N+](=O)[O-])o1,scaled lipid accumulation score,[2],inactive: ≤ -0.009
same,scaled lipid accumulation score,[1],inactive: ≤ 0
CCC(C)(C)c1ccc(CC(C)CN2C[C@@H](C)O[C@@H](C)C2)cc1 (stereo not given in full),scaled lipid accumulation score,[1],inactive: 0.093
CCC(C)(C)c1ccc(CC(C)CN2C[C@@H](C)O[C@@H](C)C2)cc1 (stereo not given in full) [Amorolfine HCl],scaled lipid accumulation score,[2],inactive: 0.118
same,scaled lipid accumulation score,[1],inactive: 0.354
CCC(C)(C)c1ccc(CC(C)CN2C[C@@H](C)O[C@@H](C)C2)cc1 (stereo not given in full) [Amorolfine],scaled lipid accumulation score,library stock concentration: 6.3 mM,inactive: ≤ -0.006
CC(C)N(CCC(=O)c1ccc2ccccc2c1)Cc1ccccc1,scaled lipid accumulation score,[2],inactive: 0.613
same,scaled lipid accumulation score,[1],inactive: 0.619
CCOC(=O)c1ccc(C#Cc2ccc3c(c2)C(C)(C)CCS3)nc1 [Tazarotene],scaled lipid accumulation score,[2],inactive: ≤ 0
same,scaled lipid accumulation score,[1],inactive: ≤ 0
C=CC(=O)N1CCc2ccc(-n3c(=O)ccc4cnc5ccc(-c6cnn(C)c6)cc5c43)cc21,scaled lipid accumulation score,[1],active: 1.19
CC[C@]12CCCN3CCc4c(n(c5ccccc45)[C@@](O)(C(=O)OC)C1)[C@@H]32 [Vincamine],scaled lipid accumulation score,,inactive: 0.122
same,scaled lipid accumulation score,[1],inactive: ≤ 0
O=C(NC1CC1)c1cccc(-c2ccc3c(NC(=O)C4CC4)n[nH]c3c2)c1,scaled lipid accumulation score,[3],inactive: ≤ 0
same,scaled lipid accumulation score,[4],inactive: ≤ 0
same,scaled lipid accumulation score,[5],inactive: ≤ 0
same,scaled lipid accumulation score,[1],inactive: ≤ 0
CC1=C(C(=O)OCCN(Cc2ccccc2)c2ccccc2)C(c2cccc([N+](=O)[O-])c2)C(P2(=O)OCC(C)(C)CO2)=C(C)N1 (stereo not given) [Efonidipine hydrochloride monoethanolate],scaled lipid accumulation score,[1],inactive: ≤ 0
CCCCCCCCCCCCCCCCn1cc[n+](Cc2ccccc2)c1C.[I-],scaled lipid accumulation score,[2],active: 0.92
CCCNS(=O)(=O)Nc1ncnc(OCCOc2ncc(Br)cn2)c1-c1ccc(Br)cc1 [Macitentan],scaled lipid accumulation score,[2],inactive: ≤ -0.009
same,scaled lipid accumulation score,[1],inactive: ≤ 0
CC(CCc1ccc(O)cc1)NCCc1ccc(O)c(O)c1 (stereo not given) [Dobutamine hydrochloride],scaled lipid accumulation score,,inactive: 0.023
same,scaled lipid accumulation score,[7],inactive: ≤ 0
same,scaled lipid accumulation score,[1],inactive: ≤ -0.063 and inactive: 0.03 and inactive: ≤ -0.027
CC(CCc1ccc(O)cc1)NCCc1ccc(O)c(O)c1 (stereo not given) [Dobutamine HCl],scaled lipid accumulation score,library stock concentration: 6.6 mM,inactive: ≤ -0.001
N[C@@H](CCC(=O)N[C@@H](CSN=O)C(=O)NCC(=O)O)C(=O)O [S-Nitrosoglutathione],scaled lipid accumulation score,[1],inactive: ≤ -0.032
CC(O)(C(=O)Nc1ccc(S(=O)(=O)c2ccccc2)cc1)C(F)(F)F (stereo not given),scaled lipid accumulation score,[1],inactive: ≤ 0
same,scaled lipid accumulation score,library stock concentration: 13.4 mM,inactive: 0.145
COc1cc2c(Oc3ccc(NC(=O)C4(C(=O)Nc5ccc(F)cc5)CC4)cc3F)ccnc2cc1OCCCN1CCOCC1,scaled lipid accumulation score,[2],active: 1.09
CCOc1nc2cccc(C(=O)OC(C)OC(=O)OC3CCCCC3)c2n1Cc1ccc(-c2ccccc2-c2nn[nH]n2)cc1 (stereo not given) [Candesartan cilextil],scaled lipid accumulation score,[1],inactive: ≤ -0.027
CCOc1nc2cccc(C(=O)OC(C)OC(=O)OC3CCCCC3)c2n1Cc1ccc(-c2ccccc2-c2nn[nH]n2)cc1 (stereo not given) [Candesartan Cilexetil],scaled lipid accumulation score,[2],inactive: ≤ 0
same,scaled lipid accumulation score,[1],inactive: ≤ 0
CCN(CC)CCCCNc1ncc2c(n1)N(C)C(=O)N(c1c(Cl)c(OC)cc(OC)c1Cl)C2,scaled lipid accumulation score,[3],inactive: ≤ -0.008
same,scaled lipid accumulation score,[4],inactive: ≤ -0.008
same,scaled lipid accumulation score,[5],inactive: ≤ -0.001
same,scaled lipid accumulation score,[1],inactive: 0.416
O=c1cc(O)cc(/C=C/c2ccc(O)c(O)c2)o1 [Hispidin],scaled lipid accumulation score,[1],inactive: ≤ -0.07
C#C[C@]1(O)CCC2C3CCC4=CC(=O)CC[C@@H]4C3CC[C@@]21CC (stereo not given in full) [Norgestrel],scaled lipid accumulation score,library stock concentration: 6.4 mM,active: 1.05
Nc1ccc(S(N)(=O)=O)cc1 [Sulfanilamide],scaled lipid accumulation score,,inactive: 0.004
same,scaled lipid accumulation score,[2],inactive: ≤ 0
same,scaled lipid accumulation score,[1],inactive: ≤ 0 and inactive: 0.002
same,scaled lipid accumulation score,library stock concentration: 11.6 mM,inactive: 0.007
CC1CCN(CCCC(=O)c2ccc(F)cc2)CC1 [Metylperon],scaled lipid accumulation score,[1],inactive: ≤ 0
CC1CCN(CCCC(=O)c2ccc(F)cc2)CC1 [Melperone hydrochloride],scaled lipid accumulation score,[1],inactive: 0.058
CC1CCN(CCCC(=O)c2ccc(F)cc2)CC1,scaled lipid accumulation score,[1],inactive: ≤ 0
CCCCCCCCCCCC(=O)O [Lauric Acid],scaled lipid accumulation score,[6],inactive: 0.017
O=S(=O)(c1cccc2c(I)cccc12)N1CCCNCC1,scaled lipid accumulation score,[1],active: 0.931
Clc1ccc(-c2nc3sccn3c2/C=N/OCc2ccc(Cl)c(Cl)c2)cc1,scaled lipid accumulation score,[1],inactive: 0.034
CCN1CCC[C@H]1CNC(=O)c1cc(S(N)(=O)=O)ccc1OC [Sulpiride s (-)],scaled lipid accumulation score,[7],inactive: ≤ -0.006
CCN1CCC[C@H]1CNC(=O)c1cc(S(N)(=O)=O)ccc1OC [Levosulpiride],scaled lipid accumulation score,[2],inactive: ≤ 0
same,scaled lipid accumulation score,[1],inactive: ≤ 0
CCN1CCC[C@H]1CNC(=O)c1cc(S(N)(=O)=O)ccc1OC,scaled lipid accumulation score,[1],inactive: ≤ 0
CCN1CCC[C@H]1CNC(=O)c1cc(S(N)(=O)=O)ccc1OC [(S)-(-)-Sulpiride],scaled lipid accumulation score,[1],inactive: 0.016
CNCCCC1c2ccccc2C=Cc2ccccc21.Cl [Protriptyline hydrochloride],scaled lipid accumulation score,,active: 1.24
same,scaled lipid accumulation score,[1],active: 0.911
N[C@@H](CSS(=O)(=O)O)C(=O)O [S-Sulfo-L-cysteine sodium salt],scaled lipid accumulation score,[1],inactive: ≤ 0
CCCCCC(O)C=CC1C(O)CC(O)C1CCCCCCC(=O)O (stereo not given) [Prostaglandin  F1a],scaled lipid accumulation score,[6],inactive: ≤ -0.021
CCCCC[C@H](O)/C=C/[C@@H]1[C@@H](CCCCCCC(=O)O)[C@@H](O)C[C@H]1O [Prostaglandin F1.alpha.],scaled lipid accumulation score,[6],inactive: ≤ 0
CN(CCOc1ccc(-c2ccc3c(c2)OCO3)cc1C(C)(C)C)CC(=O)O,scaled lipid accumulation score,[1],inactive: ≤ 0
CC(C)(Oc1ccc(C2CC2(Cl)Cl)cc1)C(=O)O (stereo not given) [Ciprofibrate],scaled lipid accumulation score,,inactive: ≤ 0
same,scaled lipid accumulation score,[2],inactive: ≤ 0
same,scaled lipid accumulation score,[1],inactive: ≤ 0 and inactive: 0.011
